Data on 172 sequences can be found in publication PMC10668032.

Some of the results follow. At the low end of the ranking the order means little.

The target in this assay is SIX1 homeodomain (reference allele) (UniProt Q15475). The assay can be described thus: universal protein binding microarray. Particulars: Universal all-10-mer PBM (8x60K, AMADID 030236), 300 nM GST-tagged protein, Alexa Fluor 488 anti-GST; buffer, salt, pH and temperature not stated; high values mean tight binding; most listed sequences are background and not binding sites; double strand, one strand shown.
For the sequence GTGGTCCA, the binding signal is -0.091 E-score.

Consider ACATGGGT, for which the binding signal was found to be 0.0605 E-score.

ACAGACGT: the binding signal is -0.0908 E-score.

CACGTAAG: the binding signal was -0.0955 E-score.

For ATTCTACG, the binding signal is 0.0699 E-score.

With CTTCAATA, the binding signal is 0.0399 E-score.

Regarding ATTCGTTC, the binding signal was -0.169 E-score.

AGTATTGG: the binding signal turned out to be 0.204 E-score.

Turning to ACAAGCCA, the binding signal is -0.282 E-score.

For AATCCTAC, the binding signal worked out at 0.0174 E-score.

Regarding CTGACTTC, the binding signal is -0.105 E-score.

CTTATGCA: the binding signal is -0.00105 E-score.

Regarding AACGCTAA, the binding signal is -0.358 E-score.

GGTCAATA: the binding signal amounted to 0.0794 E-score.

CGGGATTC: the binding signal amounted to 0.0752 E-score.

AAACCACG: the binding signal is 0.0434 E-score.

As for GTTCCATA, the binding signal was -0.0388 E-score.

For the sequence AGACTATA, the binding signal turned out to be 0.204 E-score.

As for GCACTCCA, the binding signal was -0.204 E-score.

TCATCAAA: the binding signal is -0.0525 E-score.

With CGGACTAC, the binding signal was -0.0789 E-score.

Take ATATTGCA: the binding signal turned out to be 0.221 E-score.

As for ACAGATTG, the binding signal was found to be 0.052 E-score.

With GCATTCGC, the binding signal is -0.00992 E-score.

For GGCTCGTA, the binding signal stood at 0.08 E-score.

On to GAATGACC, for which the binding signal is -0.00573 E-score.

Take ATTGCCGG: the binding signal is -0.104 E-score.

AGCATTAG: the binding signal is -0.163 E-score.

With CTTACTGA, the binding signal stood at 0.14 E-score.

As to CCAGCCAG, the binding signal was -0.246 E-score.

In the case of GCAATCAC, the binding signal is -0.0464 E-score.

With AGTTTGAA, the binding signal is -0.208 E-score.

Turning to AAACAGCC, the binding signal was -0.203 E-score.

In the case of ACCCGTTA, the binding signal was -0.00991 E-score.

As to GCCATTGA, the binding signal is -0.015 E-score.

Regarding CTCGCGAA, the binding signal was -0.215 E-score.

As for AAGCCAGT, the binding signal was -0.111 E-score.

AGCTGTCG: the binding signal is -0.127 E-score.

As for ATGGACGA, the binding signal is -0.0832 E-score.

On to ATGCATGC, for which the binding signal is -0.00552 E-score.

As to CCTTCCAG, the binding signal was -0.0762 E-score.

Consider CAATTAGG, for which the binding signal stood at 0.0942 E-score.

ATCTGCCC: the binding signal amounted to 0.182 E-score.

For the sequence GACAGCTA, the binding signal was -0.12 E-score.

For GACAATCA, the binding signal is -0.0986 E-score.

AGGGGCAT: the binding signal was found to be 0.0649 E-score.

Take CGAGGATC: the binding signal is 0.333 E-score.

For the sequence CGCTTCTC, the binding signal was -0.014 E-score.

Regarding ATCTACCA, the binding signal was 0.206 E-score.

With AGGCGGAT, the binding signal came to 0.346 E-score.

For ACAAACAT, the binding signal is -0.0932 E-score.

For AGTCTTAA, the binding signal was -0.201 E-score.

In the case of TCTAGTAA, the binding signal was -0.122 E-score.

Turning to AACGGCCC, the binding signal was -0.187 E-score.

Regarding GTCTCAGA, the binding signal was 0.0717 E-score.

Take ATGAGAGG: the binding signal turned out to be 0.0353 E-score.

Consider AGGCGGCG, for which the binding signal was 0.0226 E-score.

For CATTGGGG, the binding signal was found to be 0.108 E-score.

For the sequence AGATGGAG, the binding signal stood at 0.133 E-score.

For the sequence GGATTTCA, the binding signal is -0.0304 E-score.

On to GTACTAAA, for which the binding signal was -0.0983 E-score.

Consider GTTTCGAA, for which the binding signal was -0.0623 E-score.

As to AAGCAATT, the binding signal was -0.2 E-score.

Take CACATCTG: the binding signal stood at 0.132 E-score.

With TACCGTAA, the binding signal stood at 0.0137 E-score.

AGTCCACT: the binding signal was -0.148 E-score.

As for CCGGCTAG, the binding signal is 0.0506 E-score.

Regarding GATAGTTA, the binding signal came to 0.153 E-score.

AACCGTAA: the binding signal is -0.201 E-score.

As to ACTAGTGA, the binding signal was -0.0991 E-score.

As for ATTCGAGA, the binding signal came out at 0.0416 E-score.

On to AGATCCAG, for which the binding signal came to 0.285 E-score.

As to CACTGACA, the binding signal is 0.00724 E-score.

For the sequence CGCATAAA, the binding signal is -0.116 E-score.

Regarding ACGTTTAA, the binding signal was -0.0447 E-score.

With GAGTAATA, the binding signal was determined as 0.204 E-score.

Regarding ATCTTGAA, the binding signal was determined as 0.0101 E-score.

ACTCAATA: the binding signal turned out to be 0.0986 E-score.

For CTTACAAC, the binding signal is -0.126 E-score.

For the sequence CTATGCGC, the binding signal is 0.0176 E-score.

CCGGTTTC: the binding signal is -0.00851 E-score.

For the sequence CTCGAACA, the binding signal was -0.2 E-score.

Consider CATCAGAG, for which the binding signal was determined as 0.0622 E-score.

Take CGAAAGCA: the binding signal is -0.122 E-score.

TAGTTGCA: the binding signal was -0.0447 E-score.

As to AGCAGCGG, the binding signal is -0.153 E-score.

Consider CCTTACTC, for which the binding signal is 0.0586 E-score.

Take ATAAACAG: the binding signal was -0.107 E-score.

Regarding ACGCTTAA, the binding signal is -0.194 E-score.

Regarding CAGCCGCG, the binding signal was 0.144 E-score.

Consider CTGACACA, for which the binding signal came to 0.0138 E-score.

As for GTTCCCGA, the binding signal is -0.112 E-score.

GGTCCACA: the binding signal is -0.0594 E-score.

For AAGGGTCC, the binding signal is -0.257 E-score.

For the sequence AGTAAAGA, the binding signal is -0.146 E-score.

With CCATTTAG, the binding signal was -0.0498 E-score.

For the sequence AACCCAGA, the binding signal stood at 0.137 E-score.

For TACCGCTA, the binding signal turned out to be 0.109 E-score.

For TCAGCTGA, the binding signal was -0.217 E-score.

For the sequence TAAATAGA, the binding signal was -0.129 E-score.

Consider ATCGAATC, for which the binding signal was determined as 0.162 E-score.

Regarding ATAGAAGC, the binding signal is -0.0285 E-score.

As to ACGAAATA, the binding signal is -0.019 E-score.

Regarding AAGTTTTG, the binding signal was -0.122 E-score.

For TATGTCAA, the binding signal was -0.0935 E-score.

On to AACATACC, for which the binding signal was determined as 0.129 E-score.

On to CATTGGTC, for which the binding signal was -0.0422 E-score.

As for CAGTCGCA, the binding signal is -0.259 E-score.

Consider CCCGTGCC, for which the binding signal was -0.0961 E-score.

Regarding GACTCCTA, the binding signal was -0.0596 E-score.

Regarding TAGATAGA, the binding signal turned out to be 0.114 E-score.

GAAATCCA: the binding signal was found to be 0.0255 E-score.

As to TCTACTAA, the binding signal is -0.00144 E-score.

Consider TCTAGCAA, for which the binding signal was -0.0831 E-score.

Turning to ATTGTAGA, the binding signal is 0.0879 E-score.

On to ACTGTCAC, for which the binding signal is -0.156 E-score.

As to CCAATAGG, the binding signal is 0.0713 E-score.

On to ATTCGATC, for which the binding signal turned out to be 0.18 E-score.

Turning to GAGCAAGA, the binding signal is -0.114 E-score.

For the sequence TCTATTAA, the binding signal is -0.104 E-score.

Turning to CGGGCGGC, the binding signal was -0.0216 E-score.

Consider AGAACTCC, for which the binding signal was -0.0389 E-score.

Take AGGAACCC: the binding signal is -0.0257 E-score.

As for AGCTCCTA, the binding signal is -0.154 E-score.

On to ACTGACAC, for which the binding signal is 0.335 E-score.

Consider CCGGGTTC, for which the binding signal stood at 0.168 E-score.

As to GATCTCGC, the binding signal was 0.254 E-score.

In the case of GTGAGTAA, the binding signal was -0.0761 E-score.

For the sequence AGATCCGC, the binding signal was determined as 0.333 E-score.

Take AGTCCAAT: the binding signal is -0.212 E-score.

For the sequence AGGCGACT, the binding signal was -0.086 E-score.

Regarding AGGAATTA, the binding signal was -0.109 E-score.

As for ATACGACG, the binding signal amounted to 0.191 E-score.

For the sequence CGATTCAG, the binding signal was 0.0439 E-score.

For the sequence ACCCAGGT, the binding signal is 0.0225 E-score.

Consider ATATCTGA, for which the binding signal worked out at 0.356 E-score.

Consider ATCGACCA, for which the binding signal was -0.00571 E-score.

Regarding ACCTCAGG, the binding signal was -0.123 E-score.

ATCTACTG: the binding signal was 0.22 E-score.

In the case of CCTAGGTC, the binding signal is -0.0694 E-score.

Regarding GATGTTCC, the binding signal is -0.121 E-score.

Regarding GTGCTAGA, the binding signal is -0.142 E-score.

Take AAGCTCGG: the binding signal was -0.0477 E-score.

Consider AATCAAAA, for which the binding signal was -0.0282 E-score.

Take TAGTACTA: the binding signal was -0.121 E-score.

In the case of ACCGATGG, the binding signal is -0.0165 E-score.

With CACTCCCG, the binding signal was 0.132 E-score.

With CAAGTTCG, the binding signal is -0.233 E-score.

Take ATTAACCG: the binding signal turned out to be 0.0919 E-score.

Consider CAGCATCG, for which the binding signal is -0.164 E-score.

For the sequence CCTCGAGA, the binding signal was determined as 0.0231 E-score.

Take ACTGCTAC: the binding signal was -0.127 E-score.

Regarding GAGCCTCC, the binding signal was -0.0855 E-score.

For ATTATAAA, the binding signal is -0.185 E-score.

On to CTCTGATC, for which the binding signal was 0.145 E-score.

GGTACAAA: the binding signal is -0.282 E-score.

As to CGCACTTC, the binding signal is -0.155 E-score.

Regarding TACACCCA, the binding signal was 0.341 E-score.

In the case of TGAATCAA, the binding signal was -0.0801 E-score.

In the case of GCCATACC, the binding signal was determined as 0.0482 E-score.

For the sequence ACAGTCTG, the binding signal was -0.217 E-score.

Consider AATTTGAC, for which the binding signal was -0.161 E-score.

Take TTTCAAAA: the binding signal is -0.181 E-score.

GGGTCTAA: the binding signal came out at 0.142 E-score.

For AGTGGGCG, the binding signal is -0.0754 E-score.

As for CACGTAGA, the binding signal was -0.0094 E-score.

Consider ATATATCC, for which the binding signal is 0.438 E-score.

As to ATCGTGAG, the binding signal was determined as 0.26 E-score.

As for GCTACTCA, the binding signal was -0.019 E-score.

CAATATAG: the binding signal was 0.132 E-score.

On to ATATGCCA, for which the binding signal was 0.339 E-score.

CGAGCGCA: the binding signal was -0.022 E-score.
